Residue numbers refer to the chain shown, from its start. Some of the results follow.
B1: AACGUCG (DNA:RNA)
RNA: GGGAGACCGGAAUUCAGAUUGUCCAACGUCGUUAAAUCCCGUCGUAGCCACCA
DNA 1: CAATCTGAATTCCGGTCTCCC
DNA 2: TGGTGGCTACGACGGGATT
B2: UUUUCCU (DNA:RNA)
RNA: B1 RNA with A25U, A26U, C27U, G28U, U29C, G31U
DNA 1: CAATCTGAATTCCGGTCTCCC
DNA 2: TGGTGGCTACGACGGGATT
B3: CGGUGAU (DNA:RNA)
RNA: GGGAGACCGGAAUUCAGAUUGUCCCGGUGAUUUAAAUCCCGUCGUAGCCACCA
DNA 1: CAATCTGAATTCCGGTCTCCC
DNA 2: TGGTGGCTACGACGGGATT
B4: GGCUUGG (DNA:RNA)
RNA: B1 RNA with A25G, A26G, G28U, C30G
DNA 1: CAATCTGAATTCCGGTCTCCC
DNA 2: TGGTGGCTACGACGGGATT
B5: GUACACC (DNA:RNA)
RNA: B1 RNA with A25G, A26U, C27A, G28C, U29A, G31C
DNA 1: CAATCTGAATTCCGGTCTCCC
DNA 2: TGGTGGCTACGACGGGATT
B6: GUUACCG (DNA:RNA)
RNA: B1 RNA with A25G, A26U, C27U, G28A, U29C
DNA 1: CAATCTGAATTCCGGTCTCCC
DNA 2: TGGTGGCTACGACGGGATT
B7: CAUCAGU (DNA:RNA)
RNA: B3 RNA with G26A, G27U, U28C, G29A, A30G
DNA 1: CAATCTGAATTCCGGTCTCCC
DNA 2: TGGTGGCTACGACGGGATT
B8: GGAAAAG (DNA:RNA)
RNA: B3 RNA with C25G, G27A, U28A, G29A, U31G
DNA 1: CAATCTGAATTCCGGTCTCCC
DNA 2: TGGTGGCTACGACGGGATT
B9: CAGCUUA (DNA:RNA)
RNA: B1 RNA with A25C, C27G, G28C, C30U, G31A
DNA 1: CAATCTGAATTCCGGTCTCCC
DNA 2: TGGTGGCTACGACGGGATT
B10: CCUUCUC (DNA:RNA)
RNA: B3 RNA with G26C, G27U, G29C, A30U, U31C
DNA 1: CAATCTGAATTCCGGTCTCCC
DNA 2: TGGTGGCTACGACGGGATT
B11: CUUGCAG (DNA:RNA)
RNA: B1 RNA with A25C, A26U, C27U, U29C, C30A
DNA 1: CAATCTGAATTCCGGTCTCCC
DNA 2: TGGTGGCTACGACGGGATT
B12: UUAACAU (DNA:RNA)
RNA: B3 RNA with C25U, G26U, G27A, U28A, G29C
DNA 1: CAATCTGAATTCCGGTCTCCC
DNA 2: TGGTGGCTACGACGGGATT
B13: AGCUAAA (DNA:RNA)
RNA: B3 RNA with C25A, G27C, G29A, U31A
DNA 1: CAATCTGAATTCCGGTCTCCC
DNA 2: TGGTGGCTACGACGGGATT
B14: UGGAAGA (DNA:RNA)
RNA: B3 RNA with C25U, U28A, G29A, A30G, U31A
DNA 1: CAATCTGAATTCCGGTCTCCC
DNA 2: TGGTGGCTACGACGGGATT
B15: UGUGGUU (DNA:RNA)
RNA: B3 RNA with C25U, G27U, U28G, A30U
DNA 1: CAATCTGAATTCCGGTCTCCC
DNA 2: TGGTGGCTACGACGGGATT
B16: ACAGCCC (DNA:RNA)
RNA: B1 RNA with A26C, C27A, U29C, G31C
DNA 1: CAATCTGAATTCCGGTCTCCC
DNA 2: TGGTGGCTACGACGGGATT
B17: AAGCGUG (DNA:RNA)
RNA: B1 RNA with C27G, G28C, U29G, C30U
DNA 1: CAATCTGAATTCCGGTCTCCC
DNA 2: TGGTGGCTACGACGGGATT
B18: UGGUGGU (DNA:RNA)
RNA: B3 RNA with C25U, A30G
DNA 1: CAATCTGAATTCCGGTCTCCC
DNA 2: TGGTGGCTACGACGGGATT
B19: UGGAUGU (DNA:RNA)
RNA: B3 RNA with C25U, U28A, G29U, A30G
DNA 1: CAATCTGAATTCCGGTCTCCC
DNA 2: TGGTGGCTACGACGGGATT
B20: AUACCAA (DNA:RNA)
RNA: B1 RNA with A26U, C27A, G28C, U29C, C30A, G31A
DNA 1: CAATCTGAATTCCGGTCTCCC
DNA 2: TGGTGGCTACGACGGGATT
B21: ACUAGAG (DNA:RNA)
RNA: B1 RNA with A26C, C27U, G28A, U29G, C30A
DNA 1: CAATCTGAATTCCGGTCTCCC
DNA 2: TGGTGGCTACGACGGGATT
B22: CCCACAA (DNA:RNA)
RNA: B3 RNA with G26C, G27C, U28A, G29C, U31A
DNA 1: CAATCTGAATTCCGGTCTCCC
DNA 2: TGGTGGCTACGACGGGATT
B23: ACGCCUC (DNA:RNA)
RNA: B1 RNA with A26C, C27G, G28C, U29C, C30U, G31C
DNA 1: CAATCTGAATTCCGGTCTCCC
DNA 2: TGGTGGCTACGACGGGATT
B24: AGUUGGG (DNA:RNA)
RNA: B3 RNA with C25A, G27U, A30G, U31G
DNA 1: CAATCTGAATTCCGGTCTCCC
DNA 2: TGGTGGCTACGACGGGATT
B25: AAUGUGU (DNA:RNA)
RNA: B1 RNA with C27U, C30G, G31U
DNA 1: CAATCTGAATTCCGGTCTCCC
DNA 2: TGGTGGCTACGACGGGATT
B26: GGGAGCA (DNA:RNA)
RNA: B3 RNA with C25G, U28A, A30C, U31A
DNA 1: CAATCTGAATTCCGGTCTCCC
DNA 2: TGGTGGCTACGACGGGATT
B27: AUCCCUG (DNA:RNA)
RNA: B1 RNA with A26U, G28C, U29C, C30U
DNA 1: CAATCTGAATTCCGGTCTCCC
DNA 2: TGGTGGCTACGACGGGATT
B28: CGGGGUC (DNA:RNA)
RNA: B3 RNA with U28G, A30U, U31C
DNA 1: CAATCTGAATTCCGGTCTCCC
DNA 2: TGGTGGCTACGACGGGATT
B29: GGGUGUU (DNA:RNA)
RNA: B3 RNA with C25G, A30U
DNA 1: CAATCTGAATTCCGGTCTCCC
DNA 2: TGGTGGCTACGACGGGATT
B30: AGGAACU (DNA:RNA)
RNA: B3 RNA with C25A, U28A, G29A, A30C
DNA 1: CAATCTGAATTCCGGTCTCCC
DNA 2: TGGTGGCTACGACGGGATT
B31: UGCCAUC (DNA:RNA)
RNA: B1 RNA with A25U, A26G, G28C, U29A, C30U, G31C
DNA 1: CAATCTGAATTCCGGTCTCCC
DNA 2: TGGTGGCTACGACGGGATT

molecular target: T1, RBFOX1 RRM RbFoxmut (Fox-RRM*) (Homo sapiens, UniProt Q9NWB1 109-208, R118D;E147R;N151S;E152T); assay: EMSA; HiTS-Eq, 1 nM pool, 10 min; buffer printed only for the single-RNA assays: 10 mM Tris pH 7.5, 150 mM NaCl, 3.4 mM EDTA, 0.001% NP-40, 30 C; conditions: tags: His6 N-terminal (pET28a); label: 5' 32P
T1 sequence: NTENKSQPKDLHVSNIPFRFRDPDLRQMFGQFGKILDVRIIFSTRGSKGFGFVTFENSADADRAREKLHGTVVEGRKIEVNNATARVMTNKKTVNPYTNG
Procedure, shortened: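 Purified RbFox RRM, wild type or mutant, was incubated for 10 min in 50 µL with 1 nM of a 5′-radiolabelled RNA pool carrying 7 randomized nucleotides, whose flanks were annealed to DNA oligonucleotides, over a series of increasing protein concentrations. Unbound RNA was resolved on 8% native PAGE, cut out, reverse-transcribed, barcoded by PCR and sequenced on an Illumina HiSeq 2500. Relative association constants were derived from changes in read counts for each RNA species versus the control reaction and normalised to the cognate motif.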

Binder | binding signal
B1 | 0.103 KA relative to UGCAUGU
B2 | 0.0613 KA relative to UGCAUGU
B3 | 0.085 KA relative to UGCAUGU
B4 | 0.226 KA relative to UGCAUGU
B5 | 0.0721 KA relative to UGCAUGU
B6 | 0.0955 KA relative to UGCAUGU
B7 | 0.0808 KA relative to UGCAUGU
B8 | 0.069 KA relative to UGCAUGU
B9 | 0.124 KA relative to UGCAUGU
B10 | 0.0683 KA relative to UGCAUGU
B11 | 0.0944 KA relative to UGCAUGU
B12 | 0.0882 KA relative to UGCAUGU
B13 | 0.121 KA relative to UGCAUGU
B14 | 0.0987 KA relative to UGCAUGU
B15 | 0.151 KA relative to UGCAUGU
B16 | 0.0594 KA relative to UGCAUGU

Binder | binding signal
B17 | 0.146 KA relative to UGCAUGU
B18 | 0.161 KA relative to UGCAUGU
B19 | 0.756 KA relative to UGCAUGU
B20 | 0.0869 KA relative to UGCAUGU
B21 | 0.128 KA relative to UGCAUGU
B22 | 0.0417 KA relative to UGCAUGU
B23 | 0.0387 KA relative to UGCAUGU
B24 | 0.0708 KA relative to UGCAUGU
B25 | 0.135 KA relative to UGCAUGU
B26 | 0.109 KA relative to UGCAUGU
B27 | 0.0776 KA relative to UGCAUGU
B28 | 0.204 KA relative to UGCAUGU
B29 | 0.153 KA relative to UGCAUGU
B30 | 0.0868 KA relative to UGCAUGU
B31 | 0.208 KA relative to UGCAUGU

Source: paper PMC9911399, “Two distinct binding modes provide the RNA-binding protein RbFox with extraordinary sequence specificity”
